These results are taken from ChEMBL document CHEMBL4888484, “Replenishing the malaria drug discovery pipeline: Screening and hit evaluation of the MMV Hit Generation Library 1 (HGL1) against asexual blood stage Plasmodium falciparum ,using a nano luciferase reporter read-out” (2022).

The structures appear in SMILES notation. Hit rate of the full screen: of about 150,000 compounds, about 540 (0.36%) showed an effect of 50% or more. Some of the results follow.

For this assay, the system named is Plasmodium falciparum. Put plainly: Primary screen in NF54 nanoGlo assay, in single point, at 2uM, 72h; a lower Z score goes with more inhibition. The class given is functional, Erythrocyte. The note with it: timepoint 72 hour.
For `CCC(=O)N[C@@H]1CC[C@@]2(OC)CCN(C(=O)c3ccc(Cl)s3)[C@H]2C1`, the “% Inhibition” value is on record as -11% and the Z score came to 1.48.
The like results for `Cc1csc(CCNC(=O)c2ccc(-c3cc(C)c(C)[nH]c3=O)cc2)n1` were, in that order, 6% and -0.84.
The like results for `CC(C)c1ccc([C@@H](O)CN2CCCN(C3CC3)CC2)cc1` were, in that order, -4% and 0.77.
For `COCC[C@]1(NC(=O)c2ncn(C(C)(C)C)n2)CCOC1`, the “% Inhibition” value is reported as 5% and the Z score was -0.46.
The like results for `O=C(NCc1ccc(F)c(Cl)c1)C1(N2CCCC2)CCCCC1` were, in that order, -13% and 1.37.
For the molecule `CCS(=O)(=O)NCCCNc1ccc(C#N)nc1`, the “% Inhibition” value is -1% and the Z score was determined as 0.16.
The like results for `COC[C@](C)(CNC(=O)c1cccc(Br)c1)OC` were, in that order, -16% and 1.86.
On the same counts, the results for `COC(=O)c1ncn(CC(=O)N(c2ccccc2)C2CCCCC2)n1` are -12% and 1.54.
As to `CC(C)(C(=O)N1CCC[C@@H]2CCCC[C@@H]21)n1cccn1`, the “% Inhibition” value is -3% and the Z score is recorded as 0.33.
On the same counts, the results for `CCc1nn(C[C@H]2COc3ccccc3O2)c(=O)c(C#N)c1CC` are 6% and -0.88.
The like results for `CO[C@@](F)(C(=O)Nc1ccc(OC(F)(F)F)cc1)C(F)(F)F` were, in that order, -1% and 0.16.
On the same counts, the results for `Cc1ccc(-c2nc(C(=O)N3C[C@H](O)[C@@H](N(C)C)C3)cs2)n1C` are 0% and -0.01.
Consider `Cc1cnccc1NC(=O)N(Cc1ccco1)C[C@H]1CCCO1`, for which the “% Inhibition” value is -18% and the Z score stood at 1.86.
As for `CCc1cnc(Cn2nnc3c(cnn3C)c2=O)o1`, the “% Inhibition” value is recorded as -8% and the Z score is 1.3.
On the same counts, the results for `CC(C)c1cc(NC(=O)NCCN(C)C)n(C(C)C)n1` are -11% and 1.97.
On the same counts, the results for `CC(C)(O)CN(C(=O)c1cc2n(n1)CCCC2)C1CC1` are -1% and 0.1.
The like results for `CN(Cc1ccccc1)c1nc2c(c(Oc3ccccc3F)n1)CN(C(=O)c1cccc(C(F)(F)F)c1)CC2` were, in that order, 4% and -0.62.
In the case of `C#CC[C@@H](CO)NC(=O)Nc1c(C)cccc1C`, the “% Inhibition” value was 15% and the Z score is listed as -1.74.
On the same counts, the results for `Cn1c(N)c(C(=O)Nc2ccc3ccccc3c2)sc1=S` are -3% and 0.44.
On the same counts, the results for `COc1cccc(C(=O)N2CCN(C3=Nc4ccc(C(F)(F)F)cc4Oc4ccccc43)C[C@@H]2C)c1` are 10% and -1.01.
Take `CN1CCN([C@H]2CCN(c3ncc(Cl)cc3F)C[C@H]2CCCO)CC1`: the “% Inhibition” value was -19% and the Z score was 2.04.
For `CN(C)c1cccc(C(=O)c2cccc(N(C)C)c2)c1`, the “% Inhibition” value is on record as -33% and the Z score is reported as 3.85.
On the same counts, the results for `Cc1cc(C)nc(Cn2ccnc2-c2cccc([C@H](C)N(C)C)c2)n1` are 0% and -0.07.
On the same counts, the results for `O=C(NCCc1cccs1)c1cc(-c2ccc(F)cc2)ns1` are 5% and -0.63.
On the same counts, the results for `CC(C)c1ocnc1C(=O)Nc1ccc(OCC2CCOCC2)cc1` are 4% and -0.75.
As to `COc1cc(NS(=O)(=O)c2ccccc2-c2nc(-c3ccc(C)cc3)no2)cc(OC)c1OC`, the “% Inhibition” value is reported as 1% and the Z score is -0.09.
On the same counts, the results for `COc1nsc(CNCc2cnn(C)c2)c1Br` are -12% and 1.36.
Regarding `COc1ccccc1C1CNCCN1C(=O)CC(N)c1ccccc1` (configuration not stated), the “% Inhibition” value is on record as -9% and the Z score came to 1.79.
The like results for `Cc1cccc(OC[C@H](C)NC(=O)NCC(=O)NC(C)C)c1` were, in that order, -3% and 0.3.
The like results for `CC1(C)CCN(C(=O)Cn2cnc(C(N)=O)n2)C[C@@H]1c1ccccc1` were, in that order, 5% and -0.54.
The like results for `CC1(C)C[C@@H](O)CCN(c2nnc(-c3ccc(O)cc3)s2)C1` were, in that order, -6% and 1.24.
As to `O=C(NCC(F)F)c1ccc(S(=O)(=O)NCc2ccncn2)cc1`, the “% Inhibition” value is -5% and the Z score was 0.97.
On to `CCCCN(CCc1nc(-c2ccccc2)no1)C(=O)c1ccco1`, for which the “% Inhibition” value was found to be 6% and the Z score is -0.87.
For `O=C(Nc1cccs1)N1CCN(c2nccs2)C(=O)C1`, the “% Inhibition” value is given as 7% and the Z score is on record as -0.94.
The like results for `COc1ccccc1C(=O)N1CCN(c2ncccc2NC(=O)c2ccc3c(c2)OCO3)CC1` were, in that order, -4% and 0.61.
The like results for `CC(C)(C)Cc1cc(NC(=O)C2(C#N)CCCC2)[nH]n1` were, in that order, -14% and 1.92.
The like results for `C#CCCC1(CCC(=O)N2CCCN(c3ccncc3)CC2)N=N1` were, in that order, 0% and 0.
Regarding `Cc1csc([C@H](C)NC(=O)c2cc(COc3ccc(F)c(F)c3)on2)n1`, the “% Inhibition” value came to 8% and the Z score was -1.02.
On the same counts, the results for `COc1cccc(NC(=O)c2c(C)oc3ncn(Cc4ccccc4)c(=O)c23)c1` are -13% and 1.7.
On the same counts, the results for `CC(C)N(CCc1nccs1)C(=O)CC(F)(F)F` are -6% and 1.01.
The like results for `O=C(O)c1cnc(N2CCC[C@H](CN3CCCC3)C2)c(NS(=O)(=O)c2ccc(F)c(F)c2)c1` were, in that order, 0% and 0.04.
For `Cc1c(Br)c(C#N)c(C)n1C`, the “% Inhibition” value is given as 1% and the Z score was -0.17.
On the same counts, the results for `COc1ccc(C2(c3nnc(-c4cccc(S(=O)(=O)N(C)C)c4)o3)CCOCC2)cc1` are -3% and 0.59.
As to `CC1(C)CC2(CC(C)(c3csc(N)n3)OC2=O)C(=O)O1` (configuration not stated), the “% Inhibition” value is reported as 13% and the Z score is given as -1.5.
The like results for `CC1CCCc2ccccc2C1NC(=O)N1C[C@@H](O)C[C@H]1CO` (some centres not stated) were, in that order, -3% and 0.33.
The like results for `O=C(NCCc1ccc(C2CCCCC2)cc1)N1CCOC2(CCOCC2)C1` were, in that order, -6% and 0.69.
On the same counts, the results for `COc1ccccc1CNc1cccc(CCN2CCCC2)c1` are 27% and -3.92.
For the molecule `CC(C)COc1ccc(-c2nc(=O)c(CCC(=O)N3CCC(C)CC3)n[nH]2)cc1`, the “% Inhibition” value is -12% and the Z score was found to be 1.21.
Take `CC(C)c1ccc(-c2noc(CN3CCN(c4nccs4)CC3)n2)cc1`: the “% Inhibition” value is on record as -2% and the Z score was determined as 0.2.
On the same counts, the results for `O=S(=O)(C1CCCCC1)N1CC2(CCCC2)C1` are -3% and 0.55.
On to `Cc1nccn1-c1cc(CNC(=O)[C@H]2CCCN(S(=O)(=O)c3cccs3)C2)ccn1`, for which the “% Inhibition” value is recorded as 37% and the Z score is recorded as -4.16.
The like results for `CCn1c(N2CCOCC2)nc2c1c(=O)n(Cc1ccc(Cl)cc1)c(=O)n2C` were, in that order, -5% and 0.61.
`CCCC1(C2CCN(C(=O)CCC(C)C)CC2)NC(=O)N(CCC2CCCN2C)C1=O` (configuration not stated): the “% Inhibition” value is on record as -8% and the Z score is reported as 1.1.
On the same counts, the results for `COCCCC(=O)N1C2CCC1CC(=O)NC2` (configuration not stated) are -10% and 1.96.
`COCCc1nc(C2(Nc3ccc(Cl)cc3)CCC2)no1`: the “% Inhibition” value was determined as 33% and the Z score was -4.5.
With `CC(=O)Nc1cccnc1NC(=O)C1CC1c1ccc(F)c(F)c1` (configuration not stated), the “% Inhibition” value was -11% and the Z score is reported as 1.19.
The like results for `CCCN1CCn2cc(S(=O)(=O)Nc3cccc(OC)c3)cc2C1=O` were, in that order, 1% and -0.17.
On the same counts, the results for `CC(NC(=O)C(C)N1CCCC1c1ccc2c(c1)OCCO2)c1ccc(F)cc1` (configuration not stated) are -9% and 1.66.
As to `Cc1cccc(NCc2nc(C)cs2)c1`, the “% Inhibition” value is recorded as -1% and the Z score is given as 0.07.
The like results for `CCn1ccc2cc(C(=O)N3CCC[C@@H]3COC)ccc21` were, in that order, 3% and -0.46.
The like results for `CCC(N)(CC)CNS(=O)(=O)c1cc2c(cc1C)OCO2` were, in that order, -6% and 1.05.
The like results for `CCCNC(=O)N1CCCC[C@H]1c1nncn1-c1ccccc1` were, in that order, 0% and 0.01.
Regarding `FC1(F)CCN(Cc2ccc3cc(Cl)ccc3n2)CC1`, the “% Inhibition” value was -8% and the Z score is listed as 1.57.
On the same counts, the results for `COc1cc(C)n(CCNC(=O)c2ccoc2)c(=O)c1` are -2% and 0.4.
Turning to `O=S(=O)(c1cccs1)N1CC(Cc2nc(-c3cccnc3)no2)C1`, the “% Inhibition” value is listed as -13% and the Z score worked out at 1.73.
The like results for `CC(C)C(NC1CCCN(C(C)C)C1=O)c1nc(-c2nnc[nH]2)no1` (configuration not stated) were, in that order, -15% and 1.92.
On the same counts, the results for `Cc1c(NC(=O)c2snc(O)c2Cl)c(=O)n(C2CCCCC2)n1C` are 12% and -1.94.
The like results for `O=C(CCC(=O)c1ccccc1)NCc1nccnc1-c1ccncc1` were, in that order, -4% and 0.79.
Consider `CCc1cc(N2CCOC[C@@H](O)C2)ncn1`, for which the “% Inhibition” value was -13% and the Z score was determined as 2.62.
The like results for `Cc1cc(F)cc(S(=O)(=O)N2CCC[C@H](n3cc(C)cn3)C2)c1` were, in that order, -3% and 0.53.
The like results for `Cc1ccc(C)n1-c1cccc(C(=O)OCC(=O)Nc2ccccc2C(F)(F)F)c1` were, in that order, 14% and -2.18.
The like results for `CCN(CC)CCCNC(=O)CCn1c(=O)c(C)nc2cc(C)c(C)cc21` were, in that order, 1% and -0.16.
Turning to `CNC(=O)[C@@H]1CN(C(=O)Cc2ccc(Br)cc2)C[C@H]1CO`, the “% Inhibition” value was -13% and the Z score is recorded as 1.9.
On the same counts, the results for `COCCCn1c(C)cnc1[C@H]1CCN(Cc2ccccn2)C1` are -4% and 0.57.
The like results for `Cc1cccc([C@H](C)NCCS(=O)(=O)C(C)(C)C)c1` were, in that order, 1% and -0.07.
The like results for `COC(=O)[C@@]1(CO)N[C@@H](c2ccc3c(c2)OC(F)(F)O3)[C@H]2C(=O)N(C)C(=O)[C@H]21` were, in that order, -19% and 2.85.
As to `Cc1ncc(CNC(=O)N2CCO[C@H](c3cccc(Cl)c3)[C@H]2C)o1`, the “% Inhibition” value is given as -2% and the Z score came to 0.35.
On to `OC[C@H]1CN(c2nnc(-c3ccccc3)s2)C[C@H]1CN1CCC(O)CC1`, for which the “% Inhibition” value was -6% and the Z score amounted to 1.13.
The like results for `CNS(=O)(=O)[C@H]1CCN(Cc2ccc(Cl)cc2C)C1` were, in that order, -6% and 0.83.
On to `COCCn1nnnc1NC(=O)c1sc(C2CCCC2)nc1C`, for which the “% Inhibition” value is -6% and the Z score is 0.82.
On the same counts, the results for `COCCn1ccc(-c2sc(N)nc2C)n1` are -12% and 1.6.
For the molecule `Cc1cc(C(=O)NS(=O)(=O)C2COC2)ccc1F`, the “% Inhibition” value is listed as -3% and the Z score was 0.52.
On the same counts, the results for `Cc1nc(C(=O)N2CCN[C@H](c3ccccc3)C2)cs1` are 0% and 0.
As to `COCCNCCOc1ccc(Cl)c(C)c1`, the “% Inhibition” value is on record as -20% and the Z score turned out to be 2.51.
On the same counts, the results for `CCC(CC)C(=O)NCCc1nc(C)cs1` are -9% and 1.21.
The like results for `C[C@H]1CCCCN1Cc1ccc(CNC(=O)c2ccc(S(=O)(=O)NC3CC3)cc2)cc1` were, in that order, -10% and 1.41.
